Reference: the supplement of paper PMC7125110
± gives the standard error. Variants at the background level are over-represented here.

B1: glmS ribozyme (parent)
chain: AUAAAAGCGCCAGAACUACAGAAAUGUAGUUGACGAGGAGGAGGUUUAUCGAAUUUUCGGCGGAUGCCUCCAAA

Key:
Details in all cases: with glucosamine-6-phosphate
glucosamine-6-phosphate [1] = variants of: B1; experiment: self-cleavage kobs at 640 uM GlcN6P; higher = faster cleavage; RNA array
Procedure, shortened: (§1)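 Using a hybridised Cy3 probe at 37 °C, barcoded ribozyme variants transcribed in situ by E. coli RNA polymerase on sequenced MiSeq chips were monitored across tiles imaged over ~14 h. The flow contained glucosamine-6-phosphate from 40 μM to 10 mM in HEPES/KCl/Mg(OAc)2 buffer. Signals were normalised to baseline and to non-cleaving reference variants before per-tile medians were fit to one- or two-exponential decays to yield kobs. Weighted Michaelis–Menten fits across concentrations gave kcat and KM.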

glucosamine-6-phosphate [2] = variants of: B1; experiment: self-cleavage kobs at 2500 uM GlcN6P; higher = faster cleavage; RNA array
Procedure, shortened: as §1

glucosamine-6-phosphate [3] = variants of: B1; experiment: self-cleavage kobs at 160 uM GlcN6P; higher = faster cleavage; RNA array
Procedure, shortened: as §1

glucosamine-6-phosphate [4] = variants of: B1; experiment: self-cleavage kobs at 10000 uM GlcN6P; higher = faster cleavage; RNA array
Procedure, shortened: as §1

Variant | self-cleavage kobs at 640 uM GlcN6P (glucosamine-6-phosphate [1]) | self-cleavage kobs at 2500 uM GlcN6P (glucosamine-6-phosphate [2]) | self-cleavage kobs at 160 uM GlcN6P (glucosamine-6-phosphate [3]) | self-cleavage kobs at 10000 uM GlcN6P (glucosamine-6-phosphate [4])
C16U G40A U69G | < 1e-05 s⁻¹ | < 1e-05 s⁻¹ |  | 
A15U C34A G63U | < 1e-05 s⁻¹ |  |  | 
A15G C16G U55A | 0.000405 ± 0.00011 s⁻¹ |  | 0.000205 ± 6e-05 s⁻¹ | 
A15U C34A G35U A36U | < 1e-05 s⁻¹ |  |  | 
C16G U56C C58U | < 1e-05 s⁻¹ |  |  | 
U31A A33C A52U | < 1e-05 s⁻¹ | < 1e-05 s⁻¹ | < 1e-05 s⁻¹ | 
C16A C71A | 7.22e-05 ± 1.1e-05 s⁻¹ | 0.000187 ± 3.1e-05 s⁻¹ | 3.26e-05 ± 1.3e-05 s⁻¹ | 0.000114 ± 1.2e-05 s⁻¹
U30A A33G A36C | < 1e-05 s⁻¹ |  |  | 
U30G C34U U47A | < 1e-05 s⁻¹ |  |  | 
C16U U57G C68U | 3.89e-05 ± 1.6e-05 s⁻¹ |  |  | 
A15G U49G G63U | < 1e-05 s⁻¹ |  |  | 
U30C C70A | 7.04e-05 ± 2.5e-05 s⁻¹ | 5.57e-05 ± 1.8e-05 s⁻¹ | 5.93e-05 ± 2.3e-05 s⁻¹ | 4.43e-05 ± 1.5e-05 s⁻¹
U30C C70U | 0.000125 ± 1e-05 s⁻¹ |  | 6.03e-05 ± 7.8e-06 s⁻¹ | 
A15G A33U U45G G63A U69G | < 1e-05 s⁻¹ |  | < 1e-05 s⁻¹ | 
U30A A48U G62A | < 1e-05 s⁻¹ | < 1e-05 s⁻¹ | < 1e-05 s⁻¹ | 
A15U G37C A39G G41U | < 1e-05 s⁻¹ | < 1e-05 s⁻¹ |  | 
A15C C16U U45A | 0.000911 ± 0.00018 s⁻¹ | 0.00147 ± 0.00058 s⁻¹ |  | 
G29C U57G | < 1e-05 s⁻¹ |  |  | 
U30G U54A C67G | 0.000105 ± 2.2e-05 s⁻¹ |  |  | 
A15G A39C G60C C70A | < 1e-05 s⁻¹ | < 1e-05 s⁻¹ |  | 
C16U U30A G41A A52U | < 1e-05 s⁻¹ | < 1e-05 s⁻¹ | < 1e-05 s⁻¹ | 
A15C A64U | < 1e-05 s⁻¹ |  | < 1e-05 s⁻¹ | 
A15U U46G A53U C67U | 6.64e-05 ± 1.4e-05 s⁻¹ |  |  | 
A15U G35C G38U U45G U54G | < 1e-05 s⁻¹ |  | < 1e-05 s⁻¹ | < 1e-05 s⁻¹
C16G A48C A53G C70A | < 1e-05 s⁻¹ | < 1e-05 s⁻¹ |  | < 1e-05 s⁻¹
U30C G44C C61U | < 1e-05 s⁻¹ |  |  | 
C16G G35U G38U G59U C70A | < 1e-05 s⁻¹ | < 1e-05 s⁻¹ | < 1e-05 s⁻¹ | 
U30C C34A A36G A52U | < 1e-05 s⁻¹ | < 1e-05 s⁻¹ |  | 
G29C A33G A39C U55A G60U | < 1e-05 s⁻¹ | < 1e-05 s⁻¹ |  | 
